Measurements published in the supplement of paper PMC8728848.
Some of the results follow.

Experiments:
Assay in all cases: glycan array binding signal (z-score within array); higher = stronger binding
Settings in all cases: glycan notation: IUPAC condensed, linker removed
[1] = target: Neu5Ac(a2-6)Gal(b1-4)GlcNAc(b1-6)[Gal(b1-3)]GalNAc
Procedure, shortened: (§1)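 Columns mapping to the same glycan were averaged after glycan names were converted to IUPAC-condensed notation. The data come from 3228 arrays in the Consortium for Functional Glycomics database, limited to those with an available protein sequence. Binding is reported as a within-array Z-score averaged across arrays of one protein sequence and across linkers.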

[2] = target: Neu5Ac(a2-6)Gal(b1-4)GlcNAc6S
Procedure, shortened: as §1

Neu5Ac(a2-6)GalNAc = target: Neu5Ac(a2-6)GalNAc
Procedure, shortened: as §1

[3] = target: Neu5Ac(a2-6)GalNAc(b1-4)GlcNAc
Procedure, shortened: as §1

[4] = target: Neu5Ac(a2-6)GalNAc(b1-4)GlcNAc6S
Procedure, shortened: as §1

[5] = target: Neu5Ac(a2-6)GlcNAc(b1-4)GlcNAc
Procedure, shortened: as §1

[6] = target: Neu5Ac(a2-6)GlcNAc(b1-4)GlcNAc(b1-4)GlcNAc
Procedure, shortened: as §1

Neu5Ac(a2-8)Neu5Ac = target: Neu5Ac(a2-8)Neu5Ac
Procedure, shortened: as §1

[7] = target: Neu5Ac(a2-8)Neu5Ac(a2-3)Gal(b1-3)GalNAc(b1-4)[Neu5Ac(a2-3)]Gal(b1-4)Glc
Procedure, shortened: as §1

[8] = target: Neu5Ac(a2-8)Neu5Ac(a2-3)Gal(b1-3)GalNAc(b1-4)[Neu5Ac(a2-8)Neu5Ac(a2-3)]Gal(b1-4)Glc
Procedure, shortened: as §1

[9] = target: Neu5Ac(a2-8)Neu5Ac(a2-3)Gal(b1-4)Glc
Procedure, shortened: as §1

[10] = target: Neu5Ac(a2-8)Neu5Ac(a2-3)Gal(b1-4)GlcNAc
Procedure, shortened: as §1

[11] = target: Neu5Ac(a2-8)Neu5Ac(a2-3)[Gal(b1-3)GalNAc(b1-4)]Gal(b1-4)Glc
Procedure, shortened: as §1

[12] = target: Neu5Ac(a2-8)Neu5Ac(a2-3)[GalNAc(b1-4)]Gal(b1-4)Glc
Procedure, shortened: as §1

[13] = target: Neu5Ac(a2-8)Neu5Ac(a2-8)Neu5Ac
Procedure, shortened: as §1

[14] = target: Neu5Ac(a2-8)Neu5Ac(a2-8)Neu5Ac(a2-3)Gal(b1-4)Glc
Procedure, shortened: as §1

[15] = target: Neu5Ac(a2-8)Neu5Ac(a2-8)Neu5Ac(a2-3)[Gal(b1-3)GalNAc(b1-4)]Gal(b1-4)Glc
Procedure, shortened: as §1

[16] = target: Neu5Ac(a2-8)Neu5Ac(a2-8)Neu5Ac(a2-3)[GalNAc(b1-4)]Gal(b1-4)Glc
Procedure, shortened: as §1

[17] = target: Neu5Ac(a2-8)Neu5Ac(a2-8)Neu5Ac(a2-8)Neu5Ac(a2-3)[GalNAc(b1-4)]Gal(b1-4)Glc
Procedure, shortened: as §1

[18] = target: Neu5Ac(a2-8)Neu5Gc(a2-3)Gal(b1-4)GlcNAc
Procedure, shortened: as §1

[19] = target: Neu5Ac(b2-6)Gal(b1-4)GlcNAc
Procedure, shortened: as §1

Neu5Ac(b2-6)GalNAc = target: Neu5Ac(b2-6)GalNAc
Procedure, shortened: as §1

[20] = target: Neu5Ac9Ac(a2-3)Gal(b1-3)GlcNAc
Procedure, shortened: as §1

[21] = target: Neu5Ac9Ac(a2-3)Gal(b1-4)GlcNAc
Procedure, shortened: as §1

[22] = target: Neu5Ac9Ac(a2-6)Gal(b1-4)GlcNAc
Procedure, shortened: as §1

[23] = target: Neu5Gc(a2-3)Gal(b1-3)GlcNAc
Procedure, shortened: as §1

[24] = target: Neu5Gc(a2-3)Gal(b1-3)[Fuc(a1-4)]GlcNAc
Procedure, shortened: as §1

Neu5Gc(a2-3)Gal(b1-4)Glc = target: Neu5Gc(a2-3)Gal(b1-4)Glc
Procedure, shortened: as §1

[25] = target: Neu5Gc(a2-3)Gal(b1-4)GlcNAc
Procedure, shortened: as §1

[26] = target: Neu5Gc(a2-3)Gal(b1-4)GlcNAc(b1-3)Gal(b1-4)GlcNAc(b1-2)Man(a1-3)[Neu5Gc(a2-3)Gal(b1-4)GlcNAc(b1-3)Gal(b1-4)GlcNAc(b1-2)Man(a1-6)]Man(b1-4)GlcNAc(b1-4)GlcNAc
Procedure, shortened: as §1

[27] = target: Neu5Gc(a2-3)Gal(b1-4)[Fuc(a1-3)]GlcNAc
Procedure, shortened: as §1

[28] = target: Neu5Gc(a2-6)Gal(b1-4)GlcNAc
Procedure, shortened: as §1

Neu5Gc(a2-6)GalNAc = target: Neu5Gc(a2-6)GalNAc
Procedure, shortened: as §1

[29] = target: Neu5Gc(a2-8)Neu5Ac(a2-3)Gal(b1-4)GlcNAc
Procedure, shortened: as §1

[30] = target: Neu5Gc(a2-8)Neu5Gc(a2-3)Gal(b1-4)GlcNAc
Procedure, shortened: as §1

[31] = target: Neu5Gc(a2-8)Neu5Gc(a2-3)Gal(b1-4)GlcNAc(b1-3)Gal(b1-4)GlcNAc
Procedure, shortened: as §1

[32] = target: Neu5Gc(a2-8)Neu5Gc(a2-6)Gal(b1-4)GlcNAc
Procedure, shortened: as §1

[33] = target: Neu5Gc(b2-6)Gal(b1-4)GlcNAc
Procedure, shortened: as §1

B1: Als3-2 (Candida albicans) (protein)
chain: KTITGVFNSFNSLTWSNAATYNYKGPGTPTWNAVLGWSLDGTSASPGDTFTLNMPCVFKFTTSQTSVDLTAHGVKYATCQFQAGEEFMTFSTLTCTVSNTLTPSIKALGTVTLPLAFNVGGTGSSVDLEDSKCFTAGTNTVTFNDGGKKISINVDFERSNVDPKGYLTD
glycan array binding signal (z-score) [1]: -0.472 | glycan array binding signal (z-score) [2]: 0.723 | glycan array binding signal (z-score) (Neu5Ac(a2-6)GalNAc): -0.624 | glycan array binding signal (z-score) [3]: -0.622 | glycan array binding signal (z-score) [4]: 0.14 | glycan array binding signal (z-score) [5]: -0.657 | glycan array binding signal (z-score) [6]: -0.584 | glycan array binding signal (z-score) (Neu5Ac(a2-8)Neu5Ac): -0.01 | glycan array binding signal (z-score) [7]: 1.6 | glycan array binding signal (z-score) [8]: -0.712 | glycan array binding signal (z-score) [9]: -0.68 | glycan array binding signal (z-score) [10]: -0.06 | glycan array binding signal (z-score) [11]: -0.554 | glycan array binding signal (z-score) [12]: -0.312 | glycan array binding signal (z-score) [13]: -0.398 | glycan array binding signal (z-score) [14]: -0.603 | glycan array binding signal (z-score) [15]: 1.21 | glycan array binding signal (z-score) [16]: -0.256 | glycan array binding signal (z-score) [17]: 2.03 | glycan array binding signal (z-score) [18]: 0.414 | glycan array binding signal (z-score) [19]: -0.47 | glycan array binding signal (z-score) (Neu5Ac(b2-6)GalNAc): -0.638 | glycan array binding signal (z-score) [20]: -0.586 | glycan array binding signal (z-score) [21]: -0.346 | glycan array binding signal (z-score) [22]: -0.48 | glycan array binding signal (z-score) [23]: -0.055 | glycan array binding signal (z-score) [24]: 0.203 | glycan array binding signal (z-score) (Neu5Gc(a2-3)Gal(b1-4)Glc): 0.047 | glycan array binding signal (z-score) [25]: 0.059 | glycan array binding signal (z-score) [26]: 0.572 | glycan array binding signal (z-score) [27]: -0.059 | glycan array binding signal (z-score) [28]: 0.625 | glycan array binding signal (z-score) (Neu5Gc(a2-6)GalNAc): -0.178 | glycan array binding signal (z-score) [29]: -0.101 | glycan array binding signal (z-score) [30]: -0.685 | glycan array binding signal (z-score) [31]: 0.899 | glycan array binding signal (z-score) [32]: -0.628 | glycan array binding signal (z-score) [33]: 0.295
